Measured values: paper PMC10669843
No constants are given. Whether binding was seen depends on the method and setting. In cells and extracts the contact can be indirect. Some entries that bind do so weakly or less than the wild type.

Protein sequences, listed by entry. Tags and fused reporters are not part of them. Residues count along the entry.
UniProt P10888, residues 23-169: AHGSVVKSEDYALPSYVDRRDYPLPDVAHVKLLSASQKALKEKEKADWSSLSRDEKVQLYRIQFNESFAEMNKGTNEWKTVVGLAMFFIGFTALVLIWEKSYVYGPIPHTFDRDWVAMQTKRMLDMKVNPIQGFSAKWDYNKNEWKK
UniProt P12075, residues 32-129: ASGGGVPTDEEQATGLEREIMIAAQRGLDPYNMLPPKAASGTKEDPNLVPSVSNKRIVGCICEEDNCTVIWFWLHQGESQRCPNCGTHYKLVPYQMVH

Experiments:
[1] = target: brain mitochondrial nitric-oxide synthase (NOS; alpha NOS1 isoform) (rat (endogenous in rat brain mitochondria)) (UniProt P29476); experiment: co-IP; rabbit polyclonal anti-NOS1 prebound to agarose beads; rat brain mitochondrial lysate with 4–6 nmol calcium ions/mg mitochondrial protein; Western blot for CCOIV and CCOI
[2] = target: brain mitochondrial nitric-oxide synthase (NOS; alpha NOS1 isoform) (rat (endogenous in rat brain mitochondria)) (UniProt P29476); experiment: co-IP; rabbit polyclonal anti-NOS1 prebound to agarose beads; rat brain mitochondrial lysate with EGTA (4 mM in the results, 20–25 mM in the methods); Western blot for CCOIV and CCOI
[3] = target: cytochrome c oxidase subunit IV (rat (endogenous in rat brain mitochondria)) (UniProt P10888); experiment: co-IP; 2 µg mouse monoclonal anti-CCOIV on protein-G agarose; crude NOS preparation in HEPES buffer with CHAPS (50 mM HEPES, 1 mM EDTA, 20 mM CHAPS, pH 7.5), 1 h at 4 °C; Western blot with C-terminal anti-NOS1
[4] = target: cytochrome c oxidase subunit Vb (rat (endogenous in rat brain mitochondria)) (UniProt P12075); experiment: co-IP; immunoprecipitation of CCOVb; no details told
[5] = target: biotinylated recombinant NOS1 (UniProt P29476); experiment: pull-down; biotinylated recombinant NOS1 on avidin-linked beads; brain mitochondrial inner membrane lysate with 5 mM EGTA during binding; washed with 1 M NaCl in acetate buffer; eluted with EGTA; Western blot; only the target purified
[6] = target: biotinylated recombinant NOS1 (UniProt P29476); experiment: pull-down; biotinylated recombinant NOS1 (150 µg) on avidin-linked beads; brain mitochondrial inner membrane lysate (1 mg) with 4–6 nmol calcium ions/mg protein, 1 h at 4 °C; washed with 1 M NaCl in acetate buffer pH 5.0; eluted with elution buffer (pH 2.8) with 5 mM EGTA; Western blot; only the target purified

Row | Substance | binding [1] | binding [2] | binding [3] | binding [4] | binding [5] | binding [6]
1 | cytochrome c oxidase subunit I (from UniProt P05503 1-514) | no binding | no binding | – | – | – | –
2 | brain mitochondrial nitric-oxide synthase (NOS; alpha NOS1 isoform) (from UniProt P29476 1-1429) (enzyme) | – | – | binds | – | – | –
3 | cytochrome c oxidase subunit IV (from UniProt P10888 23-169) | binds | no binding (condition: with 4 mM EGTA) | – | binds | no binding (condition: with 5 mM EGTA during binding) | binds
